Data taken from PubChem BioAssay AID1347073 (National Center for Advancing Translational Sciences (NCATS), 2019).
Hit rate of the full screen: of about 45,000 compounds, about 200 (0.44%) were called active. Roughly 7% stayed inconclusive and do not appear here. Calls follow the shape of the dose curve; as a rule, active = well fitted activation curve with a large enough effect; inconclusive = small, poorly fitted or top-dose-only effect; inactive = no such curve, though single readings can be large or run the other way. The list shows a part of the results.

experiment: qHTS of TDP-43 Inhibitors: NCGC Sytravon Library Screen; settings: yeast TDP-43 toxicity rescue, BacTiter-Glo growth, 24 h; series mostly up to 46.1 µM; growth rescue (activation): at the top concentration; also: 0% is about no effect; nearly all actives have a fitted effect of over 55% in size
Method in brief: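 TDP-43-expressing yeast, pregrown in raffinose, seeded at OD600 0.02 in galactose medium with compound for 24 hr at 30 deg C. Growth read by BacTiter-Glo luminescence, so rescue of toxicity appears as activation.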

Structure (SMILES)	growth rescue (activation)
O=C(Nc1cc(Sc2nc3ccccc3s2)cc([N+](=O)[O-])c1)c1ccccc1	inactive: 19.3%
C[C@@H](C(=O)NCCCCCC(=O)O)n1nnc2ccccc2c1=O	inactive: 27.2%
CC(=O)N1CCN(C(=S)Nc2ccc(Oc3ccccc3)cc2)CC1	inactive: 21.5%
COCCCn1c(=O)c2ccccc2n(CC(=O)NC2CCCC2)c1=O	inactive: 19.9%
CC(C)c1nnc(NC(=O)Cc2ccc(Br)cc2)s1	inactive: 12.2%
CC(C)[C@H](NC(=O)c1ccc(Cl)c([N+](=O)[O-])c1)C(=O)NCc1ccc(Cl)cc1Cl	inactive: 23%
CCC(NC(=S)Nc1ccccc1)C(=O)O (configuration not stated)	inactive: 5.04%
Cc1ccsc1CN(C(=O)c1oc2ccccc2c1C)C1CCS(=O)(=O)C1 (configuration not stated)	inactive: 12.1%
CC(C)C(OC(=O)c1ccco1)C(=O)NCc1cccs1 (configuration not stated)	inactive: 26.6%
Cc1ccccc1C(=O)NNC(=O)CCC(=O)Nc1cccc(Cl)c1C	inactive: -15.3%
C(=N\Nc1nc2ccccc2[nH]1)/c1cccs1	inactive: 21%
CC1=CC(C)(C)Nc2ccc(OC(=O)CN3C(=O)c4ccccc4C3=O)cc21	inactive: 36.2%
COc1ccc(/C=N/NC2=NS(=O)(=O)c3ccccc32)cc1OC	inactive: 5.41%
Cc1ccc2c(c1)N(CC(=O)N1CCN(C3CCCCC3)CC1)C(=O)CO2	inactive: 6.31%
CSc1ccc(-c2nc(CN3CCCCC3c3cccnc3)c(C)o2)cc1 (configuration not stated)	inactive: 11.2%
COCc1cnc(C)nc1N	inactive: 14.8%
Cc1nc(SCc2ccc(C(=O)O)cc2)c2c(C)c(C)sc2n1	inactive: 7.11%
O=C(COC(=O)c1cncc(Br)c1)NCC12CC3CC(CC(C3)C1)C2	inactive: -9.56%
Cc1sc2ncnc(SCC(=O)NC3CCCC3)c2c1C	inactive: 15%
CC(C)(C)c1ccc(CN2N=C(/C=C/c3ccccc3)CCC2=O)cc1	inactive: 1.35%
C=CCn1c(SCC(=O)Nc2ccccc2C)nnc1-c1ccncc1	inactive: 9.16%
COc1ccc(OC)c(NC(=O)Nc2cc(C(=O)O)ccc2C)c1	inactive: 12%

Structure (SMILES)	growth rescue (activation)
O=C(N/N=C/c1c[nH]c2ccccc12)c1cc(-c2cccc3ccccc23)n[nH]1	inactive: -5.36%
N#CCCn1cc(C(=O)Nc2ccc([N+](=O)[O-])cc2)c(-c2cc3ccccc3o2)n1	inactive: 4.91%
COCCN(C(=S)Nc1cccc(C)c1C)C(C)c1ccco1 (configuration not stated)	inactive: 12%
Cc1cc(N)n(-c2ccc(Oc3ccccc3)c(S(=O)(=O)O)c2)n1	inactive: -1.33%
CCOC(=O)c1[nH]c(C)c(C(=O)N2CCN(c3ccc(OC)cc3)CC2)c1C	inactive: 2.67%
COc1cccc(C(=O)C2CCCN(C/C=C/c3ccccc3OC)C2)c1 (configuration not stated)	inactive: 7.16%
Cc1ccc(-n2c(SCC(=O)N3CCC(C(=O)O)CC3)nc3ccccc3c2=O)cc1C	inactive: 29.9%
Cc1cnc(C(=O)OCC(=O)Nc2ccccc2[N+](=O)[O-])cn1	inactive: 13.1%
CN1CCN(c2cc(C(F)(F)F)nc(-c3ccccn3)n2)CC1	inactive: 31.1%
CCN(CC)S(=O)(=O)c1cccc(C(=O)N/N=C/c2ccc(OC)c(O)c2)c1	inactive: -1.02%
Cc1cccc(NC(=O)COC(=O)C2C3CC4OC(=O)C2C4C3)c1C (configuration not stated)	inactive: 5.46%
CCCOc1ccc(C2C(C(=O)c3ccco3)=C(O)C(=O)N2CCCn2ccnc2)cc1 (configuration not stated)	inactive: 11.3%
CCc1ccc(CN2C(=O)c3ccccc3C2C(=O)NC(C)CC)cc1 (configuration not stated)	inactive: -0.198%
CCc1ccc(NC(=O)/C(C#N)=C/c2cc3ccc(C)cc3nc2N2CCOCC2)cc1	inactive: 3.51%
CNC(=O)c1ccc(NC(=O)c2nsc3ccccc23)cc1	inactive: 23.9%
CC(C)CC(=O)Nc1ccc2c3c(cccc13)CC2	inactive: 28.9%
CC1(NC(=S)NCCCCCCNC(=S)NC2(C)CCS(=O)(=O)C2)CCS(=O)(=O)C1 (configuration not stated)	inactive: 2.21%
CC1CCCCC1NC(=O)COC(=O)COc1ccccc1F (configuration not stated)	inactive: 6.63%
Cc1cc([N+](=O)[O-])nn1Cn1nc([N+](=O)[O-])cc1C	inactive: 5.05%
O=C(N/N=C/c1ccco1)c1cccc(NC(=O)c2cccc(Cl)c2)c1	inactive: 1.52%
O=C(CN1C(=O)c2ccccc2S1(=O)=O)NCCSCc1ccccc1Cl	inactive: 2.75%
O=C(O)c1nn(CCOc2c(Cl)cccc2Cl)c(=O)c2ccccc12	inactive: 8.84%

Structure (SMILES)	growth rescue (activation)
c1cnc2c(-c3cccc4nccn34)cccc2c1	inactive: 5.22%
CSc1ccc(Cl)c(C(=O)Nc2cc(S(=O)(=O)N3CCOCC3)ccc2N2CCOCC2)c1	inactive: -0.427%
Cc1ccc(OCc2nnc(N)s2)cc1	inactive: 0.478%
CC(C)CCN1CCN(Cc2ccc3nsnc3c2)CC1CCO (configuration not stated)	inactive: -4.17%
CCCS(=O)(=O)N1CCCC(C(=O)NCC(OC)OC)C1 (configuration not stated)	inactive: 8.77%
COCCC(=O)N1CCCC(CCC(=O)NCc2ccc(F)c(F)c2)C1 (configuration not stated)	inactive: -3.46%
Cc1cc(NC(=O)c2ccc3c(c2)C(=O)N(C2CCCCC2)C3=O)no1	inactive: 7.32%
O=[N+]([O-])c1cc(/C=N/n2c(-c3ccncc3)n[nH]c2=S)ccc1Cl	inactive: 1.91%
COCCN1Cc2cccc(C(=O)Nc3ccc(S(=O)(=O)N4CCCCC4)cc3)c2C1=O	inactive: 6.8%
O=C(NCc1nc(-c2ccc(Cl)cc2)no1)c1ccco1	inactive: 13.6%
O=C(Cc1cccs1)N/N=C/c1ccccn1	inactive: -2.61%
CCN(c1ccccc1)S(=O)(=O)c1cc(C(=O)Nc2ccc(Br)cc2)ccc1F	inactive: -38%
Cc1ccc(C2(C)NC(=O)N(CC(=O)N(Cc3ccccc3)C(C)(C)C)C2=O)cc1 (configuration not stated)	inactive: 8.26%
[O-]/C(=C(\C(=S)Nc1ccc(SC(F)F)cc1)[n+]1ccccc1)c1ccc(Cl)cc1Cl	inactive: 0.877%
CC1(C)C(=O)C2(CCCCC2)C(=O)OC1c1cccc([N+](=O)[O-])c1 (configuration not stated)	inactive: -4.33%
CC(=O)c1c(C)oc2ccc(NS(=O)(=O)c3ccc(C(=O)O)cc3)cc12	inactive: 10.8%
CCOC(=O)C1(C)CCN1C(=O)c1ccc(C)cc1 (configuration not stated)	inactive: 9.24%
Cc1cccc(-c2nnc(SCC(=O)O)n2Cc2ccccc2)c1	inactive: 13.5%
COc1ccccc1COC(=O)c1cccc(S(=O)(=O)N2CCCC2)c1	inactive: 16.8%
Cc1cc(C(F)F)n2nc(C(=O)Nc3cccc(C(F)(F)F)c3)nc2n1	inactive: 19.1%
Cc1cc(NC(=O)CSc2sc3c(O)cc(=O)[nH]c3c2C#N)ccc1Br	inactive: 13.2%
Cc1ccc(S(=O)(=O)N2CCOCC2)cc1NC(=O)COC(=O)c1ccc(Cl)s1	inactive: 2.68%

Structure (SMILES)	growth rescue (activation)
CC(C)Oc1ccc(CCC(=O)N/N=C/c2ccc3c(c2)OCO3)cc1	inactive: 6.38%
COc1ccc(N(CC(=O)Nc2cccc(SC)c2)S(C)(=O)=O)cc1	inactive: 2%
COc1ccc([N+](=O)[O-])cc1NC(=O)C1C2C=CC(C2)C1C(=O)O (configuration not stated)	inactive: -6.15%
O=C(Cc1ccc(Br)cc1)Nc1ccccc1Cl	inactive: 20.9%
Cc1cc(NC(=O)CCC(=O)N(Cc2ccccc2)C2(C(=O)NC3CCCCC3)CCCC2)no1	inactive: 0.0972%
CN(C(=O)c1nc(-c2ccccc2)n(-c2ccccc2)n1)C1CCS(=O)(=O)C1 (configuration not stated)	inactive: 9.53%
COc1cc(CNc2ncn[nH]2)ccc1OCc1ccccc1C	inactive: 0.816%
C1CC(CN2CCOCC2)CN(c2nc3nonc3nc2N2CCSCC2)C1 (configuration not stated)	inactive: -5.25%
Cc1ccc(NS(=O)(=O)c2ccc(NC(=O)c3cccs3)cc2)c(C)c1	inactive: 23.9%
Cc1ccc(C(=O)NC2CCCCC2)cc1S(=O)(=O)N1CCCC1	inactive: 10.5%
O=C(O)Cc1c(C(=O)O)[nH]c2ccc(C(=O)O)cc12	inactive: -0.336%
Cc1ccc2c(c1)N(Cc1ccccc1)C(=O)C(C)S2 (configuration not stated)	inactive: 16.9%
CCCOc1ccc(/C=C/C(=O)Nc2ccc([N+](=O)[O-])cc2)cc1	inactive: 18.2%
CN(C)c1ccc(S(=O)(=O)c2ccc(Cl)cc2)cc1	inactive: 6.38%
Cc1nn(CCC#N)c2[nH]c(=O)cc(C(F)(F)F)c12	inactive: 12.1%
COc1ccc(NC(=O)c2c(C)oc3ccc(O)c(CN4CCCC(C)C4)c23)cc1Cl (configuration not stated)	inactive: 19.5%
CCc1nnc(NC(=O)C(c2ccccc2)c2ccccc2)s1	inactive: -6.12%
COC(=O)c1ccc(CSc2nc3ccc(S(=O)(=O)N4CCOCC4)cc3[nH]2)cc1	inactive: 11.6%
O=C1c2ccccc2C(=O)N1COc1ccc(S(=O)(=O)N2CCOCC2)cc1[N+](=O)[O-]	inactive: 3.43%
Cc1c([N+](=O)[O-])ccc(S(=O)(=O)N2CCC(C(N)=O)CC2)c1C	inactive: 1.81%
CCCC(NC(=O)CCc1c(C)c2cc3c4c(oc3c(C)c2oc1=O)CCCC4)C(=O)O (configuration not stated)	inactive: -8.51%
COc1ccc(C(=O)C[n+]2cccc(C)c2)cc1	inactive: 3.07%

Structure (SMILES)	growth rescue (activation)
CCCCN(C(=O)C1CCCO1)c1c(N)n(CCC)c(=O)[nH]c1=O (configuration not stated)	inactive: 27.8%
CCC(Oc1ccccc1F)C(=O)NCCCn1ccnc1 (configuration not stated)	inactive: -17.7%
CSc1ccc(S(=O)(=O)N2CCC(C(=O)Nc3cccnc3)CC2)cc1	inactive: -32.4%
COC(=O)Cc1ccc(NC(=S)N2CCN(C)CC2)cc1	inactive: 4.31%
C=CCOc1ccc(C=Nc2cccc(Cl)c2)c(O)c1	inactive: -1.37%
CCc1nc2ccc(C(=O)NCCCN3CCN(c4ccccc4F)CC3)cc2nc1CC	inactive: 1.72%
O=C(c1cc(-c2ccccc2O)on1)N1CCCCCC1	inactive: 22.9%
CS(=O)(=O)c1ccc2nc(NC(=O)c3ccc(N4CCCC4=O)cc3)sc2c1	inactive: 13.6%
Cc1ccc(CC2CC(=O)N(c3nc4ccccc4s3)C2=O)cc1 (configuration not stated)	inactive: 24.8%
O=C(c1ccncc1)N1CCN(C2CCC(c3ccccc3)CC2)CC1 (configuration not stated)	inactive: -6.62%
OCC1(Cc2ccc(Cl)cc2)CCN(Cc2ccc3nsnc3c2)CC1	inactive: 8.75%
Cc1ccccc1NCC(=O)N/N=C\c1ccc2c(c1)OCO2	inactive: -8.82%
CCc1ccc(NC(=O)C2CCN(c3nnc(-n4c(C)ccc4C)s3)CC2)cc1	inactive: 8.48%
COc1ccc(Oc2ccc(NC(=O)c3ccccc3C)cc2)cc1	inactive: 7.08%
CC(Nc1cc(N2CCN(S(=O)(=O)N(C)C)CC2)ccc1[N+](=O)[O-])c1ccccc1 (configuration not stated)	inactive: 13.8%
O=C(CSc1nnc(-c2ccc([N+](=O)[O-])cc2)o1)Nc1ccccn1	inactive: -7.54%
CCC1CCCCN1CCCNC(=O)c1cn(CC)c2ccc(S(=O)(=O)N3CCc4ccccc4C3)cc2c1=O (configuration not stated)	inactive: 1.23%
O=C(N/N=C/c1cccnc1)c1ccco1	inactive: 3.05%
CCOC(=O)C1=C(CS(=O)(=O)c2ccc(C)cc2)NC(=O)NC1c1cc(OC)c(OC)c(OC)c1 (configuration not stated)	inactive: 9.64%
